Test results reported in the supplement of paper PMC4466236.
Over roughly 33,000 sequences, “E-score (dimensionless, -0.5 to 0.5)” has its median near -0.058; the highest 2% begin near 0.35. The list shows a part of the results.

These sequences were tested on MvaT (assay: PBM 8-mer E-score (mean of HK and ME arrays) (E-score (dimensionless, -0.5 to 0.5)); higher = stronger relative binding preference; most listed sequences are background and not binding sites).
Procedure, shortened: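 Full-length P. aeruginosa MvaT, with glutathione S-transferase fused to its N-terminus (cloned into pTH6838 by isothermal assembly), was tested by protein binding microarray using a previously described protocol. Two universal double-stranded 60-mer arrays (ME and HK) were used, each with a constant 25-mer primer region and a variable 35-mer region covering all 8-mers. The rank-based 8-mer E-score (-0.5 to 0.5) is the mean of the two arrays, parsed with a custom Python script.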

Sequence | PBM 8-mer E-score
CAACATAG | 0.178
CAAACCTA | 0.0792
AGCATTCC | -0.107
TGATATCA | 0.178
ATTATGCG | 0.166
ATAGGATC | -0.115
ACTGTGAG | -0.00755
CTATCACA | -0.0632
GCTTACCA | -0.00565
ACCTACTA | 0.00365
TTACCGAA | 0.017
GCGTCTCA | -0.242
ACCGCCCA | -0.125
AAGAGACA | 0.0388
AACAGGGC | -0.0721
CCGGGGTA | -0.122
CCAGGGGG | -0.358
AATGTGGG | 0.11
ACTGGCCC | -0.233
GCGAACAA | 0.127
CTCAAATC | 0.024
AACCAAAG | 0.011

Sequence | PBM 8-mer E-score
CCACGGCC | -0.305
CGGGCATA | -0.0997
AAGCTGCG | -0.136
TAACCGGA | 0.0717
CACTACAC | 0.183
CGTTTGGA | 0.0127
CTTTGGCC | -0.181
ACCTTGAT | 0.0589
TGATGTAA | 0.0749
GTGGTTCA | -0.161
AATGAGAC | -0.127
TCAACCAA | 0.0129
ATTACGTA | 0.193
GTTAGAAC | 0.136
AGCTCGGG | -0.184
GAGTAAAC | 0.00332
AGTACCAG | -0.0318
AGTCTGTG | -0.087
ACCTCTGC | -0.22
GGACGTGA | -0.13
AATGCTTC | -0.0965
AATCAGTA | 0.253

Sequence | PBM 8-mer E-score
GCGATGTA | -0.0216
GATTGAAA | 0.12
AGCCTTAG | -0.155
AGGTGTGC | -0.0777
ACATTATG | 0.249
CCCGTGCA | -0.0425
CCTCAGAG | -0.297
AGTCTGGC | -0.0658
CGAACATC | -0.132
GTCCCAGA | -0.0405
ACGACAGT | -0.0945
AATACTCA | 0.0804
TACGCGCA | 0.1
ATAGTGGC | 0.101
ATAGGGGG | -0.218
CCCAAAAG | -0.0849
AAGGCTGG | -0.135
CTCACGAC | -0.188
AGTGGAGA | -0.0672
ACCGCAGA | -0.0434
GCTTATAA | 0.418
AGGTCTAT | -0.099

Sequence | PBM 8-mer E-score
AGATCAAT | 0.144
TCTCGAGA | 0.0472
AGCCGAGG | -0.237
AATTTGAA | 0.268
GATCTAGC | 0.0422
CCGATAAG | -0.0846
CTATATGC | 0.227
CGACGCTA | -0.0964
AACATACT | 0.207
TAACACCA | 0.115
CATAAGCA | 0.0445
ACATGTTA | 0.269
CTAGTATC | -0.0351
GAACATCA | -0.0573
GCTCGTCC | -0.331
ATGTGTAA | 0.297
CAGTGCGC | -0.0407
ACGACGAC | 0.0165
CGTGATTA | 0.179
GAGTTAAC | 0.254
